This note sets out measurements from ChEMBL document CHEMBL1157539, “Thousands of chemical starting points for antimalarial lead identification” (Nature, 2010).

Over roughly 13,000 compounds, “IFI” has its median near 4; the highest 2% begin near 17. Some of the results follow.

A short description of this assay: GSK_TCMDC: Inhibition Frequency Index (IFI). The number of non-kinase HTS assays where a compound showed > 50 % inhibition, expressed as a percentage of the number of such assays in which the compound was tested (-0 is zero). It counts as functional.
In turn, `Cc1cc(N/N=C/c2ccc([N+](=O)[O-])cc2)c2ccc(F)cc2n1` yielded an IFI of 0.75%.
Under `CC(C)CCNC(=O)C1Cc2c([nH]c3cc(Cl)ccc23)C2(CCN(CCc3ccccc3)CC2)N1` (stereo not given) stands 2.8%; under `COc1ccc(-c2onc(C(F)(F)F)c2-c2cc3ccccc3o2)c(O)c1`, 4.8%.
Under `COc1ccc2ccccc2c1C=NN=c1cc[nH]c2ccc(F)cc12` stands 0%.
As for `COc1ccc2nc(C)cc(Nc3ccc(Oc4ccc5ccccc5c4Cl)c(Cl)c3)c2c1`, the IFI came to 2.19%.
Compound `CCCCCCn1c(Sc2ccc(C#N)c([N+](=O)[O-])c2)nnc1-c1cccc(Cl)c1` gave an IFI of 5.67%.
The compound `COc1ccc2nccc([C@@H](O)CN3CCC(NC(=O)c4nc(Cl)c(Cl)c(N)c4Cl)CC3)c2c1` displayed an IFI of 0.75%.
In the case of `O=S(=O)(Nc1cccc(CCN2CCC(N3CCCCC3)CC2)c1)c1ccc(Cl)cc1` it was 3.23%.
Regarding `COc1c(C2CCN(CCCCNC(=O)c3ccc(-c4ccc(Cl)cc4)c(O)c3)CC2)ccc2c1CCCC2`, the IFI amounted to 9.09%.
In the case of `COc1cccc2cc(C(=O)N[C@@H](CC(C)C)C(=O)N[C@H](/C=N/N(C)C(=O)OC(C)(C)C)CC(=O)OC(C)(C)C)oc12` it was 4.59%; in that of `CC=CCON1C(=N)NC(=N)NC1(C)C`, 1.5%.
Under `O=C(Nc1ccc(Br)cc1)N(CCN1CCOCC1)CC(O)COCc1ccc(Cl)c(Cl)c1` (stereo not given) stands 2.14%.
In the case of `CCCOC(=O)C1=C(C)NC2=C(C(=O)CC(c3ccc(OC)c(OC)c3)C2)C1c1cccc(O)c1` (stereo not given) it was 0.74%; in that of `FC(F)(F)c1ccc2[nH]c(-c3ccc(-c4cccc(CNCc5cnn(-c6ccccc6)n5)c4)cc3)nc2c1`, 5%.
`CCN(CC)CCN(Cc1ccc(-c2ccc(C(F)(F)F)cc2)cc1)C(=O)Cn1c(CCc2cccc(F)c2F)nc(=O)c2ccccc21` displayed an IFI of 8.39%.
In the case of `CC1CN(c2cnn(Cc3cccc(NC(=O)Nc4ccc(-c5ccccc5)cc4)c3)c(=O)c2Cl)CC(C)N1` (stereo not given) it was 5.63%; in that of `O=C(Nc1ccc(F)c(C(F)(F)F)c1)NC1CCN(CCCCCNC(=O)C2CC2c2ccc(Cl)c(Cl)c2)CC1` (stereo not given), 18.5%; in that of `NCCNc1ccc([N+](=O)[O-])cc1C(=O)Nc1cccc(C(F)(F)F)c1`, 1.45%.
For the compound `O=C(Nc1cccc(-c2csc(-c3nc4ccccc4[nH]3)c2)c1)c1ccncc1`, the IFI came out at 5.5%.
In the case of `COc1cc(C2Nc3ccc4ccccc4c3C3=C2C(=O)CC(C)(C)C3)ccc1Oc1ccc([N+](=O)[O-])cc1C#N` (stereo not given) it was 1.48%; in that of `CCN(CC)CCCC(C)N=c1cc(C=Cc2ccccc2Cl)[nH]c2cc(Cl)ccc12` (stereo not given), 0.7%; in that of `CCC(C)NS(=O)(=O)c1ccc2nc(Nc3ccc(C)cc3)n([C@H](C)C(C)(C)C)c2c1` (stereo not given in full), 5.11%.
Under `O=C(NCCCCN1CCC(c2ccc3c(c2OCC(O)c2ccc(Cl)cc2)CCCC3)CC1)c1ccc(-c2ccc(C(F)(F)F)cc2)cc1` (stereo not given) stands 9.65%; under `c1ccc(N2CCN(c3cc(-c4cccnc4)nc(-c4ccncc4)n3)CC2)nc1`, 1.06%.
Under `O=C(CSc1nc(-c2ccccc2Cl)ns1)Nc1ccc2c(c1)OCO2` stands 0.81%; under `C=CCOC(=O)N1CCC(CNCc2cccc(-c3ccc(-c4nc5cccc(C)c5[nH]4)cc3)c2)C1` (stereo not given), 5.94%.
For the compound `c1ccc2c(C3CCN(CCCCOc4ccc5c(c4)CCN(C4CCC4)CC5)CC3)c[nH]c2c1`, the IFI was 14.6%.
Under `Cc1cc(F)ccc1Nc1nc(N(C)c2ccccc2)c2cccc(O)c2n1` stands 9.79%; under `COc1ccc(CC2(c3ccc(F)cc3)N=C(N)N(CCCc3cccnc3)C2=O)cc1` (stereo not given), 3.33%; under `Cc1c(F)cc(C(=O)NC2CC2)cc1-c1ccc2c(cnn2S(=O)(=O)c2ccc(C#N)cc2)c1`, 7.41%.
In the case of `CC1CCN(Cc2c(O)ccc3c(O)c(-c4nc5ccccc5s4)c(=N)oc23)CC1` it was 1.82%; in that of `O=C(NCc1ccccc1)Nc1cccc(-c2cccc(-c3nc4cc(C(F)(F)F)ccc4[nH]3)c2)c1`, 5%.
In the case of `Cc1ccc(Nc2nccc(NCC(O)c3cccc(C)c3)n2)cc1` (stereo not given) it was 18.4%; in that of `O=C1C(c2ccccc2)=C(Nc2cc(Cl)cc(Cl)c2)c2ccccc21`, 4.44%.
On to `CC(=O)c1ccc(-n2ccnc2)cc1`, for which the IFI worked out at 0.73%.
In the case of `Cc1cc(N[C@@H](Cc2ccccc2)C(=O)NCc2cccc(F)c2)nc(NCc2ccccc2C)n1` it was 4.88%; in that of `Cc1nnc(Sc2ncnc3scc(-c4ccc(F)cc4)c23)s1`, 7.25%.
In turn, `CCN(CC)CCCN(CCCN(CC)CC)c1cc(C)nc(Nc2ccc(Br)cc2)n1` showed an IFI of 6.15%.
In the case of `CCN(CCCN1CCCCC1)c1cc(C)nc(Nc2ccc(C)c(Cl)c2)n1` it was 5.13%.
For the compound `COc1cc(/C=N/Nc2nc(Nc3ccccc3)nc(Nc3ccccc3)n2)ccc1OCc1ccccc1[N+](=O)[O-]`, the IFI was -0%.
In the case of `Fc1ccc2[nH]c(-c3cccc(-c4ccc(CNCC5CCCO5)cc4)c3)nc2c1` (stereo not given) it was 5.88%; in that of `CCOc1cc(C)c(C2CCN(CCCCNC(=O)c3ccc(NC(=O)c4ccc(Cl)cc4)cc3)CC2)cc1C`, 4.55%.
In turn, `CC(=O)Nc1ccc(CN2CCC(NC(=O)c3ccc(-c4cccc(OC(C)C)c4)s3)CC2)cc1` gave an IFI of 5.26%.
In the case of `CCOC(=O)c1ccc(NC(=O)N[C@@H](Cc2ccccc2)C(=O)NC2CCN(Cc3ccc(OCCCN(C)C)cc3)C2)cc1` (stereo not given in full) it was 2.94%; in that of `Cn1nc(-c2ccc(CN[C@@H]3CCc4ccc(O)cc43)cc2)c2cnc(NC3CCCC3)nc21`, 7.69%.
Under `COc1ccc(NC(=O)CCNc2cc(C)nc(NCc3ccccc3C)n2)cc1` stands 4.88%.
As for `CCOC(=O)CCCc1cc(NC2CCN(C)CC2)nc(Nc2ccc(C)cc2)n1`, the IFI stood at 2.9%.
As to `Cc1cccc2[nH]cc(C3CCN(CCC4CCN(C(=O)/C=C/c5ccc(Cl)c(Cl)c5)CC4)CC3)c12`, the IFI stood at 2.88%.
Under `Cc1cccc2nc(-c3cccc(-c4ccc(NC(=O)Nc5ccc(Cl)c(Cl)c5)cc4)c3)[nH]c12` stands 7.07%.
Under `CCOc1ccc2[nH]c(C)cc(=NN=Cc3cccnc3)c2c1` stands 5.07%.
Compound `COc1cccc(C2=CC(C)(C)Oc3cc(OCCN(C)C)ccc32)c1` registered an IFI of 0%.
Under `CC(C)(C)n1nnnc1C(c1cccnc1)N(Cc1ccccc1)Cc1ccc(Cl)cc1` (stereo not given) stands 2.46%.
For the compound `CCNC(=O)Nc1ccc(N(C)c2ccnc(Nc3ccc(CS(C)(=O)=O)cc3)n2)cc1`, the IFI was -0%.
In the case of `Clc1cnc2ccc3c(c2c1CCN1CCC(NCc2cc4c(cn2)OCCO4)CC1)OCCO3` it was 3.6%; in that of `CN(C)CCCN1C(=O)c2[nH]nc(-c3ccc(Cl)cc3O)c2C1c1ccc(Cl)cc1` (stereo not given), 13.7%.
